Data: PubChem BioAssay AID1345083 (National Center for Advancing Translational Sciences (NCATS), 2018)
Hit rate of the full screen: of about 94,000 compounds, about 6,200 (6.6%) were called active. Inconclusive means that the source gave no clear call. Such entries were picked first, then a sample of the others. Calls come from the whole dose curve; as a rule, active = well fitted inhibition curve with a large enough effect; inconclusive = small, poorly fitted or top-dose-only effect; inactive = flat fitted curve, though single readings scatter. Where the call is inconclusive, the potency comes from a doubtful curve fit.

assay: Cytotoxic Profiling in HEK 293 Cell Line of Diverse Libraries Using Quantitative High-Throughput Screening; conditions: HEK 293 viability, ATP luminescence (CellTiter-Glo), 48-72 h; activity change, negative = cytotoxicity: at 115 µM (top of the series) unless noted; series mostly up to 115 µM; note: nearly all actives have a fitted effect of over 60% in size
In short: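 Cells seeded first (HEK 293, 250 cells/well), then compound added by pintool. Incubation ran 48 or 72 hr at 37 degree Celsius. CellTiter-Glo was added and luminescence imaged after 10 min at room temperature.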
% is set by controls: 0 for no effect and ±100 for the full control effect; potency is the fitted concentration of half-maximal effect; tags give direction and shape of the fitted curve.

| SMILES | Potency | outcome | activity change, negative = cytotoxicity |
| --- | --- | --- | --- |
| O=C(c1cccc(F)c1)N1CCCC(c2noc(COc3ccccc3F)n2)C1 (stereo not drawn) | active: 70.8 µM | – | – |
| Cc1ccc(C#N)c(NCc2cccnc2N2CCN(c3ccccn3)CC2)n1 | inconclusive: 50.1 µM [inhibitor, partial curve, poor fit] | – | – |
| O=C(NCCCc1ccccc1)c1cn2cc(-c3ccccc3)sc2n1 | inconclusive: 56.2 µM [inhibitor, partial curve, poor fit] | – | – |
| CN(C)c1cccc(C(=O)NC2CCN(c3cc(-c4ccc(Cl)cc4)[nH]n3)C2)c1 (stereo not drawn) | inconclusive: 50.1 µM [inhibitor, partial curve, poor fit] | – | – |
| O=C1Nc2ccccc2CC12CCN(Cc1cccnc1)CC2 | inconclusive: 100 µM [inhibitor, partial curve] | – | – |
| O=C(NC1CCCCC1)[C@@H]1C[C@@H](O)CN1C1CCN(C(=O)c2ccc3ncccc3c2)CC1 | – | inactive | – |
| O=C(Cn1nc2c(cc1=O)CCCC2)NCCc1c[nH]c2ccc(F)cc12 | – | – | inactive: -41.2% |
| CCN(CC)Cc1nc(C2(O)CCN(Cc3ccc(F)cc3)CC2)cs1 | inconclusive: 79.4 µM [inhibitor, partial curve, poor fit] | – | – |
| Cc1nn2c(c1-c1ccccc1N1CCCC1)N(C(=O)c1ccn(C)n1)CCC2 | inconclusive: 79.4 µM [inhibitor, partial curve, poor fit] | – | – |
| C[C@H](C(=O)N1Cc2ccccc2CC2(CCN(Cc3ccncc3)C2)C1)c1ccccc1 (stereo partly drawn) | inconclusive: 79.4 µM [inhibitor, partial curve, poor fit] | – | – |
| COc1ccccc1NC(=O)N1CCc2cc(OC)c(OC)cc2C1CNC(=O)c1ccccc1 (stereo not drawn) | inconclusive: 56.2 µM [inhibitor, partial curve, poor fit] | – | – |
| Cc1cccc(NC(=O)N2CCC(CCOc3ccc(F)cc3)C2)c1 (stereo not drawn) | inconclusive: 89.1 µM [inhibitor, single point] | – | – |
| Cc1ccc(-c2noc([C@@H]3CCCN3C(=O)CCCc3ccccc3)n2)cc1 | inconclusive: 79.4 µM [inhibitor, single point] | – | – |
| COc1cc(OC)cc(OCc2nc3c(n2Cc2ccccc2)C(=O)N(Cc2ccccc2C#N)CCN3)c1 | inconclusive: 44.7 µM [inhibitor, partial curve, poor fit] | – | – |
| COc1ccccc1-c1cnc(NC(=O)C2CCOCC2)c2c1CCO2 | inconclusive: 35.5 µM [inhibitor, full curve, poor fit] | – | – |
| CN(Cc1ccc(-c2ccccc2)cc1)C(=O)C1CC1 | inconclusive: 35.5 µM [inhibitor, partial curve, poor fit] | – | – |
| CC(C)NC(=O)N1CCCC1c1nnc2n1CCNC2 (stereo not drawn) | – | – | inactive: -7.4% |
| CCCCCCNC(=O)Cc1csc2nc(C)c(-c3cc(C)n(-c4ccccc4F)n3)c(=O)n12 | – | – | inactive: -9.46% |
| COc1ccc(NC(=O)Cn2c(-c3ccc(F)cc3)nc(C)cc2=O)cc1OC | inconclusive: 89.1 µM [inhibitor, single point] | – | – |
| O=C(NCc1cccc(Cl)c1)c1nc2cccnc2n(C2CCCCC2)c1=O | inconclusive: 50.1 µM [inhibitor, partial curve, poor fit] | – | – |
| O=c1n(CC2CC2)nc2n1CCN(C1CCCC1)CC2 | – | inactive | – |

| SMILES | Potency | outcome | activity change, negative = cytotoxicity |
| --- | --- | --- | --- |
| O=C(Nc1cccc(Cl)c1)C1CN(c2cccc(Cl)c2)C(=O)N1 (stereo not drawn) | inconclusive: 89.1 µM [inhibitor, single point] | – | – |
| O=C(Nc1cc(F)cc(F)c1)C1CCN(C(=O)c2ncn3c2COC(c2ccc(F)cc2)C3)CC1 (stereo not drawn) | inconclusive: 28.2 µM [inhibitor, full curve] | – | – |
| CNC(=O)NC[C@H]1CCN(Cc2ccc(C#N)cc2)C[C@H]1N(C)C | – | – | inactive: -4.47% |
| CCn1ncc(N2CCCC(CC(=O)NCCc3cccs3)C2)cc1=O (stereo not drawn) | – | – | inactive: -0.854% |
| COc1ccccc1-c1nnc2ccc(C(=O)NCc3cccs3)cn12 | – | – | inactive: -11.8% |
| COc1cccc(-c2cn3c(n2)N(C(=O)Cn2ccnc2)CCC3)c1 | inconclusive: 89.1 µM [inhibitor, single point] | – | – |
| CN1Cc2ccc(NCc3ccccc3)nc2C(C)(C(=O)NCCCn2ccnc2)C1 (stereo not drawn) | inconclusive: 112 µM [inhibitor, single point] | – | – |
| O=C(NCc1ccco1)C1CC(c2ccccc2)CN(C(=O)c2ccoc2)C1 (stereo not drawn) | inconclusive: 50.1 µM [inhibitor, partial curve, poor fit] | – | – |
| CC(C)(C)c1nc(C(=O)N2CCCC2)n2ccccc12 | inconclusive: 100 µM [inhibitor, partial curve] | – | – |
| Cc1cnc(CC2CCN(C(=O)c3nn(C)c4ccccc34)C2)n1CC1CC1 (stereo not drawn) | inconclusive: 79.4 µM [inhibitor, partial curve] | – | – |
| Cc1nn(-c2ccccc2)c2c1C(C1CC1)N(CC1CN(C(=O)C(C)(C)C)C1)C2=O (stereo not drawn) | inconclusive: 50.1 µM [inhibitor, partial curve, poor fit] | – | – |
| CCCN1C(=O)[C@H]2CC[C@@H]1CN(C(=O)c1nc(-c3ccccc3)[nH]c1C)C2 | – | – | inactive: 1.99% |
| CCOc1cccc(CN2C[C@@H](CO)[C@H](C3CCN(C(C)=O)CC3)C2)c1 | inconclusive: 89.1 µM [inhibitor, single point] | – | – |
| COCc1noc([C@@H]2CNC[C@H]2C(N)=O)n1 | – | – | inactive: -5.97% |
| CC(C)c1noc(-c2cccn3c(CNC(=O)C4CCC4)nnc23)n1 | – | – | inactive: -1.32% |
| Cc1csc(Nc2ccc3ncn(C)c(=O)c3n2)n1 | inconclusive: 141 µM [inhibitor, partial curve, poor fit] | – | – |
| Cc1noc2c(-c3cccc(CO)c3)cc(-c3ccc(F)cc3)nc12 | active: 70.8 µM | – | – |
| COc1cc(CNCc2ccc(C)c(F)c2F)ccc1OCC(O)CN1CCC(O)CC1 (stereo not drawn) | active: 17.8 µM | – | – |
| O=C(Cc1ccc(F)cc1)NC1CCN(c2ccc3nnc(-c4ccccc4)n3n2)CC1 | inconclusive: 79.4 µM [inhibitor, partial curve, poor fit] | – | – |
| Cc1ccc([S+](=O)([O-])N2CCCC2C(=O)N2CCC(N3CCCC3=O)CC2)cc1 (stereo not drawn) | – | – | inactive: -1.39% |
| O=C(C1CCCN1C(=O)c1cccc(-c2ccccn2)c1)N1CCC(c2ccccc2)CC1 (stereo not drawn) | inconclusive: 56.2 µM [inhibitor, partial curve, poor fit] | – | – |

| SMILES | Potency | outcome | activity change, negative = cytotoxicity |
| --- | --- | --- | --- |
| CC1(C)C(=O)N(CC2CCOCC2)[C@H]2CN(CCCc3ccccc3)C[C@@H]2[S+]1(=O)[O-] | inconclusive: 112 µM [inhibitor, partial curve, poor fit] | – | – |
| O=C(c1cc(Cl)ccc1F)N1CCC(Cc2nc(-c3ccc(F)cc3)no2)CC1 | inconclusive: 28.2 µM [inhibitor, partial curve, poor fit] | – | – |
| COc1ccc(NC(=O)N2CCc3nc(-c4cccc(F)c4)[nH]c3C2)cc1 | inconclusive: 25.1 µM [inhibitor, full curve, poor fit] | – | – |
| O=C(Nc1ccc(Oc2ccccc2F)cc1)C1CCCCN1C(=O)c1cccnc1 (stereo not drawn) | inconclusive: 15.8 µM [inhibitor, full curve, poor fit] | – | – |
| COc1ccc(CN2Cc3cc(NC(=O)c4ccc(F)cc4F)ccc3OC(C)C2=O)c(OC)c1 (stereo not drawn) | active: 44.7 µM | – | – |
| CCN(C)C(=O)CCc1c(C)nn(-c2ccccc2)c1Oc1ccccc1F | active: 39.8 µM | – | – |
| CO[C@H]1[C@H](NC(=O)c2cc3ccccc3[nH]2)c2ccccc2C12CCNCC2 | inconclusive: 56.2 µM [inhibitor, partial curve, poor fit] | – | – |
| CCc1cccc(NC(=O)Cn2c(Nc3cc(C)cc(C)c3)nc(C)cc2=O)c1 | active: 39.8 µM | – | – |
| Cc1ccc(-c2nc(CNC(=O)[C@@H]3CCCN3)[nH]c2-c2ccccn2)cc1 | inconclusive: 50.1 µM [inhibitor, partial curve, poor fit] | – | – |
| CC(C)(C)c1nnc([C@H]2CCN(Cc3ccco3)C2)o1 | – | – | inactive: -16.8% [at 230 µM] |
| CCN1c2cc(C(=O)Nc3ccc(OC)c(OC)c3)ccc2C(=O)N2CCCCCC21 (stereo not drawn) | active: 44.7 µM | – | – |
| COc1ccccc1Nc1ccnc(N2CCC(NC(=O)N(C)C)CC2)n1 | inconclusive: 39.8 µM [inhibitor, partial curve, poor fit] | – | – |
| Cc1ccc(CNC(=O)N2CCCN(C)c3ccccc32)cc1 | inconclusive: 70.8 µM [inhibitor, single point] | – | – |
| Cc1ccc(CN2CCOc3cc([S+](N)(=O)[O-])ccc3C2)c(F)c1 | inconclusive: 79.4 µM [inhibitor, partial curve] | – | – |
| COc1ccc(Nc2ccnc(N3CCC(NC(=O)c4ccc(Cl)cc4)CC3)n2)cc1 | inconclusive: 56.2 µM [inhibitor, partial curve, poor fit] | – | – |
| COc1ccc(-c2cc(N3CCC(NC(=O)c4cccc(C)c4)CC3)n[nH]2)cc1 | inconclusive: 50.1 µM [inhibitor, partial curve, poor fit] | – | – |
| CCc1nc2c(c(-c3ccc(O)cc3)n1)CCN(Cc1ccccc1OC)CC2 | inconclusive: 50.1 µM [inhibitor, partial curve, poor fit] | – | – |
| O=C(c1ccc2cc[nH]c2c1)N1CCC(c2noc(C3CC3)n2)C1 (stereo not drawn) | inconclusive: 89.1 µM [inhibitor, single point] | – | – |
| COCCn1ccc2c(C3=CCOCC3)nc(-c3cccc(C(N)=O)c3)cc21 | inconclusive: 112 µM [inhibitor, partial curve, poor fit] | – | – |
| Cc1ccc(NC(=O)Cn2c(N3CCCCC3)nc(C)c(C)c2=O)cc1Cl | inconclusive: 17.8 µM [inhibitor, full curve, poor fit] | – | – |
| O=C1NCc2ccccc2CC12CCN(Cc1ccc(Br)s1)CC2 | inconclusive: 50.1 µM [inhibitor, partial curve, poor fit] | – | – |
